The record followed here is the supplement of paper PMC8728848.

Experiment in all cases: glycan array binding signal (z-score within array); higher = stronger binding
Holding throughout (conditions): glycan notation: IUPAC condensed, linker removed

Test [1] concerns the target Gal(b1-4)GlcNAc(b1-3)Gal(b1-3)GlcNAc. Put shortly: (§1)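 From the Consortium for Functional Glycomics database, 3228 arrays were curated, keeping only those whose protein sequence was available. Binding is given as a within-array Z-score averaged across arrays sharing a protein sequence and across linkers. Negative Z-scores can be read as non-binding.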
Test [2] concerns the target Gal(b1-4)GlcNAc(b1-3)Gal(b1-4)Glc. Put shortly: as §1
In test [3] the target is Gal(b1-4)GlcNAc(b1-3)Gal(b1-4)GlcNAc. The method, boiled down: as §1
For test [4], the target named is Gal(b1-4)GlcNAc(b1-3)Gal(b1-4)GlcNAc(b1-2)Man(a1-3)[Gal(b1-4)GlcNAc(b1-3)Gal(b1-4)GlcNAc(b1-2)Man(a1-6)]Man(b1-4)GlcNAc(b1-4)GlcNAc. The method, boiled down:
as §1

In test [5] the target is Gal(b1-4)GlcNAc(b1-3)Gal(b1-4)GlcNAc(b1-2)Man(a1-3)[Gal(b1-4)GlcNAc(b1-3)Gal(b1-4)GlcNAc(b1-2)Man(a1-6)]Man(b1-4)GlcNAc(b1-4)[Fuc(a1-6)]GlcNAc. The method, boiled down: as §1
For test [6], the target named is Gal(b1-4)GlcNAc(b1-3)Gal(b1-4)GlcNAc(b1-2)[Gal(b1-4)GlcNAc(b1-3)Gal(b1-4)GlcNAc(b1-6)]Man(a1-6)[Gal(b1-4)GlcNAc(b1-3)Gal(b1-4)GlcNAc(b1-2)Man(a1-3)]Man(b1-4)GlcNAc(b1-4)GlcNAc. The method, boiled down: as §1
Test [7] has as its target Gal(b1-4)GlcNAc(b1-3)Gal(b1-4)GlcNAc(b1-2)[Gal(b1-4)GlcNAc(b1-3)Gal(b1-4)GlcNAc(b1-6)]Man(a1-6)[Gal(b1-4)GlcNAc(b1-3)Gal(b1-4)GlcNAc(b1-2)Man(a1-3)]Man(b1-4)GlcNAc(b1-4)[Fuc(a1-6)]GlcNAc. Put shortly: as §1
Test [8] addresses Gal(b1-4)GlcNAc(b1-3)Gal(b1-4)GlcNAc(b1-3)Gal(b1-4)GlcNAc. Put shortly:
as §1

Test [9] addresses Gal(b1-4)GlcNAc(b1-3)Gal(b1-4)GlcNAc(b1-3)Gal(b1-4)GlcNAc(b1-2)Man(a1-3)[Gal(b1-4)GlcNAc(b1-3)Gal(b1-4)GlcNAc(b1-3)Gal(b1-4)GlcNAc(b1-2)Man(a1-6)]Man(b1-4)GlcNAc(b1-4)GlcNAc. The method, boiled down: as §1
For test [10], the target named is Gal(b1-4)GlcNAc(b1-3)Gal(b1-4)GlcNAc(b1-3)Gal(b1-4)GlcNAc(b1-2)Man(a1-3)[Gal(b1-4)GlcNAc(b1-3)Gal(b1-4)GlcNAc(b1-3)Gal(b1-4)GlcNAc(b1-2)Man(a1-6)]Man(b1-4)GlcNAc(b1-4)[Fuc(a1-6)]GlcNAc. Put shortly:
as §1

Test [11] concerns the target Gal(b1-4)GlcNAc(b1-3)Gal(b1-4)GlcNAc(b1-3)Gal(b1-4)GlcNAc(b1-2)[Gal(b1-4)GlcNAc(b1-3)Gal(b1-4)GlcNAc(b1-3)Gal(b1-4)GlcNAc(b1-6)]Man(a1-6)[Gal(b1-4)GlcNAc(b1-3)Gal(b1-4)GlcNAc(b1-3)Gal(b1-4)GlcNAc(b1-2)Man(a1-3)]Man(b1-4)GlcNAc(b1-4)[Fuc(a1-6)]GlcNAc. The method, boiled down:
as §1

For test [12], the target named is Gal(b1-4)GlcNAc(b1-3)Gal(b1-4)GlcNAc(b1-3)Gal(b1-4)GlcNAc(b1-3)Gal(b1-4)GlcNAc(b1-2)Man(a1-3)[Gal(b1-4)GlcNAc(b1-3)Gal(b1-4)GlcNAc(b1-3)Gal(b1-4)GlcNAc(b1-3)Gal(b1-4)GlcNAc(b1-2)Man(a1-6)]Man(b1-4)GlcNAc(b1-4)GlcNAc. The method, boiled down: as §1
For test [13], the target named is Gal(b1-4)GlcNAc(b1-3)Gal(b1-4)GlcNAc(b1-3)Gal(b1-4)GlcNAc(b1-3)Gal(b1-4)GlcNAc(b1-2)Man(a1-3)[Gal(b1-4)GlcNAc(b1-3)Gal(b1-4)GlcNAc(b1-3)Gal(b1-4)GlcNAc(b1-3)Gal(b1-4)GlcNAc(b1-2)Man(a1-6)]Man(b1-4)GlcNAc(b1-4)[Fuc(a1-6)]GlcNAc. Put shortly: as §1
Test [14] concerns the target Gal(b1-4)GlcNAc(b1-3)Gal(b1-4)GlcNAc(b1-3)Gal(b1-4)GlcNAc(b1-3)Gal(b1-4)GlcNAc(b1-2)[Gal(b1-4)GlcNAc(b1-3)Gal(b1-4)GlcNAc(b1-3)Gal(b1-4)GlcNAc(b1-3)Gal(b1-4)GlcNAc(b1-6)]Man(a1-6)[Gal(b1-4)GlcNAc(b1-3)Gal(b1-4)GlcNAc(b1-3)Gal(b1-4)GlcNAc(b1-3)Gal(b1-4)GlcNAc(b1-2)Man(a1-3)]Man(b1-4)GlcNAc(b1-4)[Fuc(a1-6)]GlcNAc. The method, boiled down: as §1
The target in test [15] is Gal(b1-4)GlcNAc(b1-3)Gal(b1-4)GlcNAc(b1-3)Gal(b1-4)GlcNAc(b1-3)Gal(b1-4)GlcNAc(b1-3)Gal(b1-4)GlcNAc(b1-2)Man(a1-3)[Gal(b1-4)GlcNAc(b1-3)Gal(b1-4)GlcNAc(b1-3)Gal(b1-4)GlcNAc(b1-3)Gal(b1-4)GlcNAc(b1-3)Gal(b1-4)GlcNAc(b1-2)Man(a1-6)]Man(b1-4)GlcNAc(b1-4)GlcNAc. The method, boiled down: as §1
The target in test [16] is Gal(b1-4)GlcNAc(b1-3)Gal(b1-4)GlcNAc(b1-3)Gal(b1-4)GlcNAc(b1-3)Gal(b1-4)GlcNAc(b1-3)Gal(b1-4)GlcNAc(b1-2)Man(a1-3)[Gal(b1-4)GlcNAc(b1-3)Gal(b1-4)GlcNAc(b1-3)Gal(b1-4)GlcNAc(b1-3)Gal(b1-4)GlcNAc(b1-3)Gal(b1-4)GlcNAc(b1-2)Man(a1-6)]Man(b1-4)GlcNAc(b1-4)[Fuc(a1-6)]GlcNAc. Put shortly: as §1
In test [17] the target is Gal(b1-4)GlcNAc(b1-3)Gal(b1-4)GlcNAc(b1-3)Gal(b1-4)GlcNAc(b1-3)Gal(b1-4)GlcNAc(b1-3)Gal(b1-4)GlcNAc(b1-2)[Gal(b1-4)GlcNAc(b1-3)Gal(b1-4)GlcNAc(b1-3)Gal(b1-4)GlcNAc(b1-3)Gal(b1-4)GlcNAc(b1-3)Gal(b1-4)GlcNAc(b1-6)]Man(a1-6)[Gal(b1-4)GlcNAc(b1-3)Gal(b1-4)GlcNAc(b1-3)Gal(b1-4)GlcNAc(b1-3)Gal(b1-4)GlcNAc(b1-3)Gal(b1-4)GlcNAc(b1-2)Man(a1-3)]Man(b1-4)GlcNAc(b1-4)[Fuc(a1-6)]GlcNAc. The method, boiled down: as §1

Test [18] deals with Gal(b1-4)GlcNAc(b1-3)Gal(b1-4)GlcNAc(b1-3)Gal(b1-4)GlcNAc(b1-3)Gal(b1-4)GlcNAc(b1-3)Gal(b1-4)GlcNAc(b1-3)Gal(b1-4)GlcNAc(b1-2)Man(a1-3)[Gal(b1-4)GlcNAc(b1-3)Gal(b1-4)GlcNAc(b1-3)Gal(b1-4)GlcNAc(b1-3)Gal(b1-4)GlcNAc(b1-3)Gal(b1-4)GlcNAc(b1-3)Gal(b1-4)GlcNAc(b1-2)Man(a1-6)]Man(b1-4)GlcNAc(b1-4)GlcNAc. Put shortly: as §1
For test [19], the target named is Gal(b1-4)GlcNAc(b1-3)Gal(b1-4)GlcNAc(b1-3)GalNAc. The method, boiled down:
as §1

Some of the results follow.

B1: Arath Fbox (Arabidopsis thaliana), NP_178341.1 (protein)
chain: EFTWGRKRRVKSESSPFDSFPEDCISYIISFTNPRDACVAATVSKTFESTVKSDIIWEKFLPADYESLIPPSRVFSSKKELYFSLCNDPVLFDDDKKSVWLEKASGKRCLMLSAMNLSIIWGDNPQYWQWIPIPESRFEKVAKLRDVCWFEIRGRTNTRVLSPRTRYSAYIVFKGVDKCYGFQNVAIEAAVGVVGQEPSRRLICFSEAIRRGRRNVVKPKQREDGWMEIELGEFFNDGGIMDNDEIEMSALETKQLNRKCGLIIQGIEIRPAKILAAAAASFLEQKLISEEDLNSAVDHHHHHH
Take B1: the “glycan array binding signal (z-score)” value in test [1] is -0.723; in test [2], 0.103; in test [3] it was -0.56; in test [4], 0.358; in [5], 3.33; in [6] it was 2.73. Further, the “glycan array binding signal (z-score)” value in test [7] stood at 0.187; in test [8], 1.28; in test [9], 1.35; in [10], 0.569; in test [11] it was 2.13; in test [12], 0.763. In addition, the “glycan array binding signal (z-score)” value is 0.351 in [13]; 2.36 in test [14]; 2.6 in test [15]; 1.63 in [16]; 1.6 in test [17]; 1.32 in test [18]. Besides, in test [19], the “glycan array binding signal (z-score)” value amounted to 0.46.
